Measurements: PubChem BioAssay (NCI)
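Here, GI50 denotes the concentration required for 50% inhibition of growth. TGI marks complete inhibition of growth.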

Legend:
Experiment in all cases: NCI tumour cell line growth inhibition, 384-well format
786-0 renal = system: 786-0 renal
A498 renal = system: A498 renal
A549 NSCLC = system: A549 NSCLC
ACHN renal = system: ACHN renal
BT-549 breast = system: BT-549 breast
CAKI-1 renal = system: CAKI-1 renal
CCRF-CEM leukemia = system: CCRF-CEM leukemia
COLO 205 colon = system: COLO 205 colon
DU-145 prostate = system: DU-145 prostate
HCC-2998 colon = system: HCC-2998 colon
HCT-116 colon = system: HCT-116 colon
HCT-15 colon = system: HCT-15 colon
HL-60(TB) leukemia = system: HL-60(TB) leukemia
HOP-62 NSCLC = system: HOP-62 NSCLC
HOP-92 NSCLC = system: HOP-92 NSCLC
HT29 colon = system: HT29 colon
IGROV1 ovarian = system: IGROV1 ovarian
K-562 leukemia = system: K-562 leukemia
KM12 colon = system: KM12 colon
LOX IMVI melanoma = system: LOX IMVI melanoma
M14 melanoma = system: M14 melanoma
MALME-3M melanoma = system: MALME-3M melanoma
MCF7 breast = system: MCF7 breast
MDA-MB-231 breast = system: MDA-MB-231 breast
MDA-MB-435 melanoma = system: MDA-MB-435 melanoma
MDA-MB-468 breast = system: MDA-MB-468 breast
MOLT-4 leukemia = system: MOLT-4 leukemia
NCI-H226 lung = system: NCI-H226 lung
NCI-H23 lung = system: NCI-H23 lung
NCI-H322M lung = system: NCI-H322M lung
NCI-H460 NSCLC = system: NCI-H460 NSCLC
NCI-H522 lung = system: NCI-H522 lung
NCI/ADR-RES ovarian = system: NCI/ADR-RES ovarian
OVCAR-3 ovarian = system: OVCAR-3 ovarian
OVCAR-4 ovarian = system: OVCAR-4 ovarian
OVCAR-5 ovarian = system: OVCAR-5 ovarian
OVCAR-8 ovarian = system: OVCAR-8 ovarian
PC-3 prostate = system: PC-3 prostate
RPMI-8226 leukemia = system: RPMI-8226 leukemia
RXF 393 renal = system: RXF 393 renal
SF-268 CNS = system: SF-268 CNS
SF-295 CNS = system: SF-295 CNS
SF-539 CNS = system: SF-539 CNS
SK-MEL-2 melanoma = system: SK-MEL-2 melanoma
SK-MEL-28 melanoma = system: SK-MEL-28 melanoma
SK-MEL-5 melanoma = system: SK-MEL-5 melanoma
SK-OV-3 ovarian = system: SK-OV-3 ovarian
SN12C renal = system: SN12C renal
SNB-19 CNS = system: SNB-19 CNS
SR leukemia = system: SR leukemia
SW-620 colon = system: SW-620 colon
T-47D breast = system: T-47D breast
TK-10 renal = system: TK-10 renal
U251 glioblastoma = system: U251 glioblastoma
UACC-257 melanoma = system: UACC-257 melanoma
UACC-62 melanoma = system: UACC-62 melanoma
UO-31 renal = system: UO-31 renal

`CN[C@@H]1C[C@H]2O[C@@](C)([C@@H]1OC)n1c3ccccc3c3c4c(c5c6ccccc6n2c5c31)C(=O)NC4` showed a GI50 ([…]-0 renal) of less than 10 nM, a TGI (786-0 renal) of less than 10 nM and a GI50 (A498 renal) of less than 10 nM. The TGI (A498 renal) was less than 10 nM, the GI50 (A549 NSCLC) was less than 10 nM and the TGI (A549 NSCLC) was 114 nM. The GI50 (ACHN renal) was less than 10 nM, the TGI (ACHN renal) was 333 nM and the GI50 (BT-549 breast) was less than 10 nM. It also gave a TGI (BT-549 breast) of less than 10 nM, a GI50 (CAKI-1 renal) of less than 10 nM and a TGI (CAKI-1 renal) of less than 10 nM. The GI50 (CCRF-CEM leukemia) was less than 10 nM, the TGI (CCRF-CEM leukemia) was less than 10 nM and the GI50 (COLO 205 colon) was less than 10 nM. It also gave a TGI (COLO 205 colon) of less than 10 nM, a GI50 (DU-145 prostate) of less than 10 nM and a TGI (DU-145 prostate) of 46.8 nM. The GI50 (HCC-2998 colon) was less than 10 nM, the TGI (HCC-2998 colon) was 16 nM and the GI50 (HCT-116 colon) was less than 10 nM. For the same compound, the TGI (HCT-116 colon) was 18.6 nM, the GI50 (HCT-15 colon) was less than 10 nM and the TGI (HCT-15 colon) was 30.4 nM. It also gave a GI50 (HL-60(TB) leukemia) of less than 10 nM, a TGI (HL-60(TB) leukemia) of 11.4 nM and a GI50 (HOP-62 NSCLC) of less than 10 nM. For the same compound, the TGI (HOP-62 NSCLC) was less than 10 nM, the GI50 (HOP-92 NSCLC) was less than 10 nM and the TGI (HOP-92 NSCLC) was less than 10 nM. The GI50 (HT29 colon) was 10.2 nM, the TGI (HT29 colon) was 36.1 nM and the GI50 (IGROV1 ovarian) was less than 10 nM. For the same compound, the TGI (IGROV1 ovarian) was less than 10 nM, the GI50 (K-562 leukemia) was 11.3 nM and the TGI (K-562 leukemia) was 185 nM. For the same compound, the GI50 (KM12 colon) was less than 10 nM, the TGI (KM12 colon) was 18.9 nM and the GI50 (LOX IMVI melanoma) was less than 10 nM. For the same compound, the TGI (LOX IMVI melanoma) was less than 10 nM, the GI50 (M14 melanoma) was less than 10 nM and the TGI (M14 melanoma) was 117 nM. It also gave a GI50 (MALME-3M melanoma) of less than 10 nM, a TGI (MALME-3M melanoma) of less than 10 nM and a GI50 (MCF7 breast) of less than 10 nM. For the same compound, the TGI (MCF7 breast) was 123 nM, the GI50 (MDA-MB-231 breast) was less than 10 nM and the TGI (MDA-MB-231 breast) was less than 10 nM. It also gave a GI50 (MDA-MB-435 melanoma) of less than 10 nM, a TGI (MDA-MB-435 melanoma) of 166 nM and a GI50 (MDA-MB-468 breast) of less than 10 nM. The TGI (MDA-MB-468 breast) was less than 10 nM, the GI50 (MOLT-4 leukemia) was less than 10 nM and the TGI (MOLT-4 leukemia) was less than 10 nM. It also gave a GI50 (NCI-H226 lung) of less than 10 nM, a TGI (NCI-H226 lung) of 45.8 nM and a GI50 (NCI-H23 lung) of less than 10 nM. For the same compound, the TGI (NCI-H23 lung) was less than 10 nM, the GI50 (NCI-H322M lung) was less than 10 nM and the TGI (NCI-H322M lung) was 19.9 nM. The GI50 (NCI-H460 NSCLC) was less than 10 nM, the TGI (NCI-H460 NSCLC) was 104 nM and the GI50 (NCI-H522 lung) was less than 10 nM. The TGI (NCI-H522 lung) was less than 10 nM, the GI50 (NCI/ADR-RES ovarian) was less than 10 nM and the TGI (NCI/ADR-RES ovarian) was less than 10 nM. For the same compound, the GI50 (OVCAR-3 ovarian) was less than 10 nM, the TGI (OVCAR-3 ovarian) was 68.3 nM and the GI50 (OVCAR-4 ovarian) was less than 10 nM. For the same compound, the TGI (OVCAR-4 ovarian) was less than 10 nM, the GI50 (OVCAR-5 ovarian) was less than 10 nM and the TGI (OVCAR-5 ovarian) was less than 10 nM. For the same compound, the GI50 (OVCAR-8 ovarian) was less than 10 nM, the TGI (OVCAR-8 ovarian) was 16.5 nM and the GI50 (PC-3 prostate) was less than 10 nM. The TGI (PC-3 prostate) was 103 nM, the GI50 (RPMI-8226 leukemia) was less than 10 nM and the TGI (RPMI-8226 leukemia) was less than 10 nM. For the same compound, the GI50 (RXF 393 renal) was less than 10 nM, the TGI (RXF 393 renal) was less than 10 nM and the GI50 (SF-268 CNS) was less than 10 nM. It also gave a TGI (SF-268 CNS) of less than 10 nM, a GI50 (SF-295 CNS) of less than 10 nM and a TGI (SF-295 CNS) of less than 10 nM. The GI50 (SF-539 CNS) was less than 10 nM, the TGI (SF-539 CNS) was less than 10 nM and the GI50 (SK-MEL-2 melanoma) was less than 10 nM. The TGI (SK-MEL-2 melanoma) was less than 10 nM, the GI50 (SK-MEL-28 melanoma) was less than 10 nM and the TGI (SK-MEL-28 melanoma) was 52 nM. The GI50 (SK-MEL-5 melanoma) was less than 10 nM, the TGI (SK-MEL-5 melanoma) was 114 nM and the GI50 (SK-OV-3 ovarian) was less than 10 nM. It also gave a TGI (SK-OV-3 ovarian) of less than 10 nM, a GI50 (SN12C renal) of less than 10 nM and a TGI (SN12C renal) of 15.2 nM. For the same compound, the GI50 (SNB-19 CNS) was less than 10 nM, the TGI (SNB-19 CNS) was 26.3 nM and the GI50 (SR leukemia) was less than 10 nM. The TGI (SR leukemia) was less than 10 nM, the GI50 (SW-620 colon) was less than 10 nM and the TGI (SW-620 colon) was 15.5 nM. The GI50 (T-47D breast) was 15 nM, the TGI (T-47D breast) was 88.1 nM and the GI50 (TK-10 renal) was less than 10 nM. The TGI (TK-10 renal) was less than 10 nM, the GI50 (U251 glioblastoma) was less than 10 nM and the TGI (U251 glioblastoma) was 18.1 nM. For the same compound, the GI50 (UACC-257 melanoma) was less than 10 nM, the TGI (UACC-257 melanoma) was 177 nM and the GI50 (UACC-62 melanoma) was less than 10 nM. It also gave a TGI (UACC-62 melanoma) of 65.4 nM, a GI50 (UO-31 renal) of less than 10 nM and a TGI (UO-31 renal) of less than 10 nM.
